From PMC4780765, “Role of Interaction and Nucleoside Diphosphate Kinase B in Regulation of the Cystic Fibrosis Transmembrane Conductance Regulator Function by cAMP-Dependent Protein Kinase A” (PLoS ONE, 2016)

Target: T1, nucleoside diphosphate kinase B (human (endogenous in 16HBE14o-), UniProt P22392 1-152)
T1 construct: nucleoside diphosphate kinase B (NDPK-B, NM23-H2), endogenous in the human bronchial epithelial cell line 16HBE14o-; also called NDPK-B; NDPK B; source: endogenous, 16HBE14o- cells (membrane and cytosol fractions, lysates)
Assay: co-IP; CFTR or NDPK-B immunoprecipitates from 16HBE14o- membranes; cells untreated, treated with FSK (10 μM)/IBMX (100 μM) for 30 min, or with PKI (100 nM) or H-89 (1 μM) for 5 min before FSK/IBMX
Details: partners not purified

T1 sequence (P22392 whole entry): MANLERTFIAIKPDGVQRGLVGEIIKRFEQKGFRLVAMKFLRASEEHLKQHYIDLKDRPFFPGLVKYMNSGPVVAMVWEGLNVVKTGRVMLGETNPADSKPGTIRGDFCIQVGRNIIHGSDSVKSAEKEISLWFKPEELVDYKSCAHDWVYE

fold increase of co-immunoprecipitation with FSK/IBMX over untreated cells: 2 fold
B1: cystic fibrosis transmembrane conductance regulator (natural protein)
chain: not shown
notes: CFTR, endogenous in the wild type human bronchial epithelial cell line 16HBE14o-; band at 175 kDa; also called CFTR; ABCC7; source: endogenous, 16HBE14o- cells (membrane fraction, lysates, immunoprecipitates)
